Test results reported in a collection of fitness landscapes (doi:10.1016/j.celrep.2020.107928).
In all, about 81,000 sequences were measured (“one-hybrid fitness for binding NBS DNA”: median about -0.1, highest 2% from about 0.36 on). Some of the results follow.

B1: Caulobacter ParB omega fusion; a variant is named by its letters at X, in order, B8GW30 (parent)
chain: MESVVVGEPGMSEGRRGLGRGLSALLGEVDAAPAQAPGEQLGGSREAPIEILQRNPDQPRRTFREEDLEDLSNSIREKGVLQPILVRPSPDTAGEYQIVAGERAWRAAQRAGLKTVPIMVRELDDLAVLEIGIIENVQRADLNVLEEALSYKVLMEKFERTQENIAQTIGKSXSHVANXMRLLXLPDEVQSYLVSGELTAXHARAIAAAADPVALAKQIIEGGLSVRETEALARKAPNLSAGKSKGGRPPRVKDTDTQALESDLSSVLGLDVSIDHRGSTGTLTITYATLEQLDDLCNRLTRGI

Variants of: B1
Experiment: one-hybrid fitness for binding NBS DNA (the Noc-binding site; scaled: cognate 1, non-cognate 0); higher = stronger binding
Conditions: with NBS DNA site
Summary of the method: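 Selection: bacterial one-hybrid in E. coli USO, HIS3 reporter with the site 19 bp from the promoter, 48 hours at 37°C on M9-minus-histidine plus 0.1 mM IPTG and 5 mM 3-AT. Libraries were Caulobacter ParB with four randomised specificity codons, sequenced on Illumina before and after selection. Fitness is the rescaled log change in variant-to-wild-type read ratio, anchored to the cognate and non-cognate sites.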

Row | Variant | one-hybrid fitness for binding NBS DNA
1 | ACYC | ≤ 0.2
2 | LGVS | ≤ 0.2
3 | MFSS | ≤ 0.2
4 | AKDT | ≤ 0.2
5 | VMPH | ≤ 0.2
6 | HLGH | ≤ 0.2
7 | YKCC | ≤ 0.2
8 | LSTD | ≤ 0.2
9 | TEEN | ≤ 0.2
10 | GRQL | ≤ 0.2
11 | FRHR | ≤ 0.2
12 | RQNT | 0.53
13 | KTYF | ≤ 0.2
14 | DPRR | ≤ 0.2
15 | TSGM | ≤ 0.2
16 | RRTG | 0.331
17 | TMRR | 0.276
18 | NRHE | ≤ 0.2
19 | APAR | ≤ 0.2
20 | PRVL | ≤ 0.2
21 | SPLS | ≤ 0.2
22 | DEFR | ≤ 0.2
23 | CGFC | ≤ 0.2
24 | SIKG | ≤ 0.2
25 | LFDG | ≤ 0.2

Row | Variant | one-hybrid fitness for binding NBS DNA
26 | LHRS | ≤ 0.2
27 | PNFV | ≤ 0.2
28 | HYHA | ≤ 0.2
29 | HGGC | ≤ 0.2
30 | CGRT | ≤ 0.2
31 | QRAE | 0.332
32 | STES | ≤ 0.2
33 | MRPI | ≤ 0.2
34 | KQAC | ≤ 0.2
35 | RGEM | ≤ 0.2
36 | NDTF | ≤ 0.2
37 | YPTR | ≤ 0.2
38 | LDPG | ≤ 0.2
39 | DLSV | ≤ 0.2
40 | ASPP | ≤ 0.2
41 | MTRS | ≤ 0.2
42 | AEWS | ≤ 0.2
43 | LNNL | ≤ 0.2
44 | HTDF | ≤ 0.2
45 | VEDL | ≤ 0.2
46 | RAVC | ≤ 0.2
47 | IEAS | ≤ 0.2
48 | PPAW | ≤ 0.2
49 | KPQT | ≤ 0.2
50 | HWDR | ≤ 0.2

Row | Variant | one-hybrid fitness for binding NBS DNA
51 | PLGI | ≤ 0.2
52 | KGGR | ≤ 0.2
53 | ICMF | ≤ 0.2
54 | WNMR | ≤ 0.2
55 | GVRM | ≤ 0.2
56 | MGTC | ≤ 0.2
57 | STTH | ≤ 0.2
58 | NPLD | ≤ 0.2
59 | CHMW | ≤ 0.2
60 | AHKS | ≤ 0.2
61 | LRQG | ≤ 0.2
62 | ATRQ | ≤ 0.2
63 | ESTF | ≤ 0.2
64 | RVAR | 0.396
65 | LTHG | ≤ 0.2
66 | NGQV | ≤ 0.2
67 | MECR | ≤ 0.2
68 | SETA | ≤ 0.2
69 | SYVC | ≤ 0.2
70 | AHKM | ≤ 0.2
71 | QHNC | ≤ 0.2
72 | MTKH | ≤ 0.2
73 | LLLY | ≤ 0.2
74 | ALMS | ≤ 0.2
75 | TGFC | ≤ 0.2

Row | Variant | one-hybrid fitness for binding NBS DNA
76 | QWAY | ≤ 0.2
77 | DILR | ≤ 0.2
78 | ASTD | ≤ 0.2
79 | ISEG | ≤ 0.2
80 | VHVC | ≤ 0.2
81 | VRPV | ≤ 0.2
82 | IGAS | ≤ 0.2
83 | IGRI | ≤ 0.2
84 | NWWC | ≤ 0.2
85 | MSQM | ≤ 0.2
86 | CLSW | ≤ 0.2
87 | KMLR | ≤ 0.2
88 | IDIS | ≤ 0.2
89 | QYRE | 0.216
90 | MKKR | 0.213
91 | LAGY | ≤ 0.2
92 | QCPW | ≤ 0.2
93 | VRRQ | ≤ 0.2
94 | DYFC | ≤ 0.2
95 | RALA | ≤ 0.2
96 | QSEL | ≤ 0.2
97 | QALS | 0.226
98 | CTCT | ≤ 0.2
99 | HNMA | ≤ 0.2
100 | TWLI | ≤ 0.2

Row | Variant | one-hybrid fitness for binding NBS DNA
101 | QVQV | ≤ 0.2
102 | IMTC | ≤ 0.2
103 | NPPC | ≤ 0.2
104 | EYPV | ≤ 0.2
105 | KWRR | ≤ 0.2
106 | WGTG | ≤ 0.2
107 | DGGN | ≤ 0.2
108 | PANG | ≤ 0.2
109 | PGKG | ≤ 0.2
110 | QPSQ | ≤ 0.2
111 | PTEP | ≤ 0.2
112 | DMLY | ≤ 0.2
113 | GFFG | ≤ 0.2
114 | THWI | ≤ 0.2
115 | HNVN | ≤ 0.2
116 | ELSE | ≤ 0.2
117 | MLSI | ≤ 0.2
118 | ATAQ | ≤ 0.2
119 | ARQN | ≤ 0.2
120 | GTDL | ≤ 0.2
121 | QDPR | ≤ 0.2
122 | IQNT | ≤ 0.2
123 | MSPI | ≤ 0.2
124 | YKAR | ≤ 0.2
125 | PLRL | ≤ 0.2

Row | Variant | one-hybrid fitness for binding NBS DNA
126 | FVYT | ≤ 0.2
127 | CACF | ≤ 0.2
128 | MDKS | ≤ 0.2
129 | VYAR | ≤ 0.2
130 | DPPR | ≤ 0.2
131 | GMGR | ≤ 0.2
132 | QQNR | 0.786
133 | PKPE | ≤ 0.2
134 | LAST | ≤ 0.2
135 | LQNS | ≤ 0.2
136 | LEFM | ≤ 0.2
137 | IWKL | ≤ 0.2
138 | RQSW | ≤ 0.2
139 | CMQC | ≤ 0.2
140 | QRKA | 0.692
141 | QSHL | ≤ 0.2
142 | KYRW | ≤ 0.2
143 | ILAR | ≤ 0.2
144 | RWLI | ≤ 0.2
145 | RHRT | 0.583
146 | FTTR | ≤ 0.2
147 | PTRI | ≤ 0.2
148 | SIET | ≤ 0.2
149 | SHWT | ≤ 0.2
150 | AVKG | ≤ 0.2

Row | Variant | one-hybrid fitness for binding NBS DNA
151 | QKSW | ≤ 0.2
152 | GSPN | ≤ 0.2
153 | QQRA | 0.606
154 | ELHS | ≤ 0.2
155 | TCQA | ≤ 0.2
156 | RHFH | ≤ 0.2
157 | KYKV | ≤ 0.2
158 | TTRK | ≤ 0.2
159 | QKAE | ≤ 0.2
160 | CRFS | ≤ 0.2
161 | HRTN | ≤ 0.2
162 | MQRR | 0.206
163 | KLWM | ≤ 0.2
164 | RRAQ | 0.223
165 | SSTW | ≤ 0.2
166 | ALVL | ≤ 0.2
167 | RAGN | ≤ 0.2
168 | RREA | 0.44
169 | ERAG | ≤ 0.2
170 | PRLL | ≤ 0.2
171 | PFAT | ≤ 0.2
172 | WSEM | ≤ 0.2
173 | CYNT | ≤ 0.2
174 | FCGR | ≤ 0.2
175 | RIWI | ≤ 0.2

Row | Variant | one-hybrid fitness for binding NBS DNA
176 | WAPG | ≤ 0.2
177 | SRYK | ≤ 0.2
178 | SHHY | ≤ 0.2
179 | RSRF | ≤ 0.2
180 | PGYW | ≤ 0.2
181 | QDNN | ≤ 0.2
182 | DAPA | ≤ 0.2
183 | QFAV | ≤ 0.2
184 | FNLC | ≤ 0.2
185 | FVAS | ≤ 0.2
186 | DILS | ≤ 0.2
187 | AIQY | ≤ 0.2
188 | VRKE | ≤ 0.2
189 | FTKK | ≤ 0.2
190 | QGDF | ≤ 0.2
191 | RQSL | ≤ 0.2
192 | PPTV | ≤ 0.2
193 | VTTT | ≤ 0.2
194 | LHAG | ≤ 0.2
195 | YNNE | ≤ 0.2
